The values below come from PubChem BioAssay AID1347073 (National Center for Advancing Translational Sciences (NCATS), 2019).

Molecules are shown by their SMILES. Screen size: about 45,000 compounds; about 200 (0.44%) were called active. Not shown: some 7% with an inconclusive outcome. Calls come from the whole dose curve; as a rule, active = well fitted activation curve with a large enough effect; inconclusive = small, poorly fitted or top-dose-only effect; inactive = no such curve, though single readings can be large or run the other way. Some of the results follow.

A short description of the assay: qHTS of TDP-43 Inhibitors: NCGC Sytravon Library Screen. Note: 0% is about no effect; nearly all actives have a fitted effect of over 55% in size. As to conditions: yeast TDP-43 toxicity rescue, BacTiter-Glo growth, 24 h; series mostly up to 46.1 µM; growth rescue (activation): at the top concentration. The source says:
The goal of this project is to identify new chemical probes capable of reversing the toxicity associated with TDP-43 which is associated with frontotemporal lobar degeneration and amyotrophic lateral sclerosis. These compounds will provide a complementary approach to deciphering the tangled mechanisms of toxicity and protection that we have uncovered through genome-wide genetic screens and are beginning to uncover in a large-scale proteomics analysis with mass spectroscopy. To this end, a miniaturized assay was developed to be screened against the Molecular Libraries Small Molecule Repository (MLSMR) to discover TDP-43 inhibitors. Please note that in the set-up this yeast-based assay compounds that inhibit as TDP-43, have a read-out as activators. NIH Chemical Genomics Center [NCGC] NIH Molecular Libraries Probe Centers Network [MLPCN] Assay Submitter (PI): Susan Lindquist, Whitehead Institute/MIT MLPCN Grant: R21 NS060957
Dispense 2.5 microL yeast galactose medium per 1536-well plate, pin compound, dispense 2.5 microL TDP-43 expressing yeast in galactose medium at OD600=0.02 (pregrown in raffinose medium to mid-log phase) per well, incubate for 24 hr at 30 deg C, and cell growth will be measured using 5 microL of Bactiter/Glo reagent to entire plate and read using Luminescence Protocol in ViewLux.
Take `CCc1c(C)nc2ncnn2c1N1CCN(S(=O)(=O)c2ccc(OC)cc2)CC1`: the “growth rescue (activation)” value was inactive: -7.65%.

As to `COc1cccc(CN2CC(C(=O)N3CCN(C(C)C)CC3)CCC2=O)c1` (stereo unspecified), the “growth rescue (activation)” value was inactive: -9.22%.

On to `Cc1ccc(NC(=O)CCn2cnc3ccccc3c2=O)cc1`, for which the “growth rescue (activation)” value was inactive: 14%.

As for `COc1ccc(C(=O)NNC(=O)CSc2nnc(COc3ccccc3OC)n2C)cc1`, the “growth rescue (activation)” value was inactive: -13.4%.

Take `CC(=O)c1ccc(OCCCC(=O)Nc2cccc(S(=O)(=O)N3CCCCCC3)c2)cc1`: the “growth rescue (activation)” value is inactive: 14.2%.

Take `O=C(Nc1ccc2c(c1)OCCO2)c1ccc(Br)cc1`: the “growth rescue (activation)” value is inactive: 24.2%.

For the compound `OCCC1CN(Cc2nc3ccccc3[nH]2)CCN1C1CCCC1` (stereo unspecified), the “growth rescue (activation)” value was inactive: 0.904%.

`COCCOc1ccc(C(F)(F)F)cc1NC(=O)COC(=O)c1ccc(N2CCCC2=O)cc1`: the “growth rescue (activation)” value is inactive: 19.7%.

As to `Cc1ccc(N(C)S(=O)(=O)c2cccc(C(=O)Oc3ccc4c(C)cc(=O)oc4c3)c2)cc1`, the “growth rescue (activation)” value was inactive: 5.77%.

In the case of `CC(=O)c1cccc(NC(=O)CCn2c(=S)oc3ccccc32)c1`, the “growth rescue (activation)” value was inactive: 10.6%.

Turning to `CCN(CC)S(=O)(=O)c1cc(NS(=O)(=O)c2cccc(C(=O)O)c2)ccc1C`, the “growth rescue (activation)” value was inactive: 2.82%.

For the compound `COc1cc(C(=O)NNC(=S)NC(=O)c2ccc3c(c2)OCO3)cc(OC)c1OC`, the “growth rescue (activation)” value was inactive: -6.23%.

With `CN(C)S(=O)(=O)c1ccc(C(=O)NCC(C)(C)CN=C2NS(=O)(=O)c3ccccc32)cc1`, the “growth rescue (activation)” value is inactive: -9.27%.

With `COc1cccc(C(c2nnnn2Cc2ccco2)N2CCN(Cc3ccccc3)CC2)c1OC` (stereo unspecified), the “growth rescue (activation)” value is inactive: 4.47%.

Take `Cc1ccc(C(c2nnnn2C2CCCCC2)N2CCc3ccccc32)cc1` (stereo unspecified): the “growth rescue (activation)” value is inactive: -8.97%.

As to `CCCC(=O)Nc1ccc(Cl)c(NC(=O)c2ccc([N+](=O)[O-])cc2Cl)c1`, the “growth rescue (activation)” value was inactive: 30.4%.

For `CN(Cc1ccccc1)C(=O)c1nc2ccccn2c1CNCCn1cccn1`, the “growth rescue (activation)” value is inactive: 2.79%.

With `NC(=O)COC(=O)c1cc(-c2ccco2)nc2ccccc12`, the “growth rescue (activation)” value is inactive: 7.1%.

`CCCOc1ccc(/C=N/Nc2ccccc2[N+](=O)[O-])c(OCCC)c1`: the “growth rescue (activation)” value was inactive: -8.02%.

Take `COc1ccc(C(=O)CC(=O)C(=O)Nc2ccccc2Cl)cc1`: the “growth rescue (activation)” value was inactive: -16.8%.

For `Cc1cc(N2C(=O)C(O)=C(C(=O)c3cc4ccccc4o3)C2c2cccc(Cl)c2)no1` (stereo unspecified), the “growth rescue (activation)” value is inactive: 4.65%.

With `COc1ccc(Cn2c(=O)[nH]c3cc(C(=O)N4CCN(c5ccccn5)CC4)ccc3c2=O)cc1`, the “growth rescue (activation)” value was inactive: 4.52%.

For `CCc1c(C)nc2nncn2c1NCc1ccc(Cl)cc1`, the “growth rescue (activation)” value is inactive: 33.6%.

`CCCCC(=O)N(C)c1c(CC)nc2c(OCc3ccccc3C)cccn12`: the “growth rescue (activation)” value was inactive: 7.96%.

As to `Cc1cccc(NC(=S)N2CCN(c3ccc(F)cc3)CC2)c1`, the “growth rescue (activation)” value was inactive: 16.3%.

On to `CCCC(c1nnnn1Cc1ccc(OC)cc1)N1CCN(C(=O)c2ccco2)CC1` (stereo unspecified), for which the “growth rescue (activation)” value was inactive: -8.39%.

`COC(=O)c1ccc(CN2C(=O)c3ccccc3C2=O)o1`: the “growth rescue (activation)” value is inactive: 17%.

As for `COc1ccc(/C=N/NC(=O)c2cccc(NC(=O)c3ccccc3Cl)c2)cc1`, the “growth rescue (activation)” value was inactive: 11%.

Consider `COc1ccc(C(=O)C2CCCN(Cc3ccc(Sc4nncn4C)o3)C2)cc1F` (stereo unspecified), for which the “growth rescue (activation)” value is inactive: 4.06%.

For the compound `Cc1ccc(S(=O)(=O)CCc2nnc(NC(=O)c3ccco3)s2)cc1`, the “growth rescue (activation)” value was inactive: -1.02%.

As to `O=C(O)COc1ccc(-c2nc(-c3ccccc3)c(-c3ccccc3)[nH]2)cc1`, the “growth rescue (activation)” value is inactive: 11.9%.

On to `CCCCn1c(=O)[nH]c(=O)c2c1nc(-c1ccc(C(F)(F)F)cc1)n2C`, for which the “growth rescue (activation)” value is inactive: 9.24%.

Take `COc1cccc(OC)c1OCCCOc1ccc([N+](=O)[O-])cc1Cl`: the “growth rescue (activation)” value was inactive: 28.4%.

With `CS(=O)(=O)N1CCN(Cc2ccc([N+](=O)[O-])cc2)CC1`, the “growth rescue (activation)” value was inactive: -5.52%.

Turning to `Cc1ccc(Nc2nc(CSc3nnc(-c4cccnc4)n3-c3ccccc3C)cs2)cc1`, the “growth rescue (activation)” value is inactive: 14.5%.

With `CCCCN(CC)CCNC(=O)c1cc2c(=O)n(CC)c3ccccc3c2s1`, the “growth rescue (activation)” value is inactive: 1.67%.

Turning to `COc1ccc(NC(=O)c2ccco2)cc1NC(=O)c1ccccc1F`, the “growth rescue (activation)” value is inactive: -25.4%.

Regarding `Cc1ccc(OCC(=O)Nc2ccc(S(=O)(=O)N3CCCCC3)cc2)c([N+](=O)[O-])n1`, the “growth rescue (activation)” value was inactive: 1.62%.

With `Cc1cccc2c1cnn2C(=O)Nc1ccccc1Br`, the “growth rescue (activation)” value was inactive: 7.03%.

For the compound `O=C1CC(c2ccccc2)CC(=O)C1=CN1CCCC1` (stereo unspecified), the “growth rescue (activation)” value is inactive: -26.8%.

In the case of `CCN(Cc1ccccc1)c1ccc(/C=N/NC(=S)NC(C)C)cc1`, the “growth rescue (activation)” value was inactive: 26.1%.

For the compound `Cc1nc(SCCOc2ccccc2F)[nH]c(=O)c1Cc1ccccc1`, the Potency entry is “inactive”.

For `O=C(Nc1nc2c(s1)CCCC2)c1cccc(S(=O)(=O)N2CCCc3ccccc32)c1`, the “growth rescue (activation)” value was inactive: -11.9%.

For the compound `O=C(CSCc1ccccc1)N/N=C/c1cc2c(cc1Br)OCO2`, the “growth rescue (activation)” value was inactive: -2.98%.

As for `C=CCNc1nc(Cl)nc(Nc2ccc(OC)cc2OC)n1`, the “growth rescue (activation)” value was inactive: 11.8%.

`O=C(COC(=O)c1cc(S(=O)(=O)N2CCOCC2)c(Cl)cc1Cl)NCc1ccco1`: the “growth rescue (activation)” value is inactive: 16.4%.

As to `COc1ccc(NC(=O)c2cc(-c3ccc(C)c(C)c3O)n[nH]2)cc1Cl`, the “growth rescue (activation)” value is inactive: 13.6%.

In the case of `CCN(Cc1ccncc1)C(=O)CCc1nnc(CCc2ccc(OC)cc2)o1`, the “growth rescue (activation)” value was inactive: 1.54%.

On to `O=C(CCN1C(=O)c2cccc3cccc(c23)C1=O)NC1CCS(=O)(=O)C1` (stereo unspecified), for which the “growth rescue (activation)” value was inactive: 29.2%.

On to `COc1cccc(CC(=O)Nc2cccc3ccccc23)c1`, for which the “growth rescue (activation)” value was inactive: 16.2%.

On to `Cc1c(C)c2ccc(Oc3ccc([N+](=O)[O-])cc3C(F)(F)F)c(C)c2oc1=O`, for which the “growth rescue (activation)” value is inactive: 32.3%.

For the compound `CC(=O)c1cccc(NC(=S)NC(=O)c2ccccc2Cl)c1`, the “growth rescue (activation)” value was inactive: -4.16%.

For the compound `O=C1CC(N2CCN(c3ccccc3O)CC2)C(=O)N1Cc1ccccc1` (stereo unspecified), the “growth rescue (activation)” value is inactive: -11.5%.

For `COCCNC(=O)C(c1ccc(O)cc1)N(Cc1ccco1)C(=O)CCC(=O)Nc1ccccn1` (stereo unspecified), the “growth rescue (activation)” value is inactive: -0.119%.

Consider `CCOC(=O)C1(C)CCN1C(=O)c1cccc(C(F)(F)F)c1` (stereo unspecified), for which the “growth rescue (activation)” value is inactive: 16.8%.

For `CCCCCCCCCCOC(=O)Cn1c(COc2ccc(OC)cc2)[n+](C)c2ccccc21`, the “growth rescue (activation)” value was inactive: -88.5%.

On to `O=C(Nc1ccncc1)C1CC(=O)N(c2ccccc2)C1` (stereo unspecified), for which the “growth rescue (activation)” value is inactive: 4.12%.

In the case of `COc1ccc(N2CCN(C(=O)c3ccccc3NC(=O)c3ccccc3)CC2)cc1`, the “growth rescue (activation)” value was inactive: 25.8%.

`CCn1ncc(CN2CCCC(CNC(=O)c3ccc(F)cc3)C2)c1C` (stereo unspecified): the “growth rescue (activation)” value is inactive: 7.02%.

Regarding `O=C(c1cccc(F)c1)N1CCN(c2ccc([N+](=O)[O-])c(N3CCOCC3)c2)CC1`, the “growth rescue (activation)” value is inactive: 16.1%.

For `CN(C)c1oc(/C=C/c2cccs2)nc1S(=O)(=O)c1ccccc1`, the “growth rescue (activation)” value is inactive: 11%.

For `CCc1ccc(-c2nn(-c3ccccc3)cc2CSC(=N)N)cc1`, the “growth rescue (activation)” value is inactive: -9.37%.

In the case of `COc1ccc(OC)c(NC(=O)CSc2nc3[nH]c(=O)[nH]c(=O)c3s2)c1`, the “growth rescue (activation)” value is inactive: 14.6%.

For `COc1ccc2nc(/C(C#N)=C\c3ccc(C(=O)O)cc3)[nH]c2c1`, the “growth rescue (activation)” value was inactive: 14.5%.

Take `CC(=O)Nc1nc(-c2ccc([N+](=O)[O-])cc2)cs1`: the “growth rescue (activation)” value is inactive: 5.99%.

With `Cn1c(O)c(N=NC(=O)c2cccc(S(=O)(=O)N3CCCCC3)c2)c2ccccc21`, the “growth rescue (activation)” value is inactive: 11.7%.
